T1: Activin A (UniProt P08476 311-426)
T1 sequence (looked up): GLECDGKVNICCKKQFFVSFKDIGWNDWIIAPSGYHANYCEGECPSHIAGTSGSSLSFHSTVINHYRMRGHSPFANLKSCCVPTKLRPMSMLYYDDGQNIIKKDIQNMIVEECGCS

T2: BMP-9 (UniProt Q9UK05 320-429)
T2 construct: bought protein; also called bone morphogenic protein-9
T2 sequence (looked up): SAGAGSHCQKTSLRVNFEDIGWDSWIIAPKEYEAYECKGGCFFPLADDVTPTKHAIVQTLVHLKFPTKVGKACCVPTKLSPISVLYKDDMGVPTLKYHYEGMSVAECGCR

T3: BMP-10 (UniProt O95393 317-424)
T3 construct: bought protein; also called bone morphogenic protein-10
T3 sequence (looked up): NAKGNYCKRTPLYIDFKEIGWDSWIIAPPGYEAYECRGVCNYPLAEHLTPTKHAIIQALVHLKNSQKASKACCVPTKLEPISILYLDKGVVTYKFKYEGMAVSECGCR

T4: Myostatin (UniProt O14793 267-375)
T4 construct: bought protein; also called GDF-8; MST
T4 sequence (looked up): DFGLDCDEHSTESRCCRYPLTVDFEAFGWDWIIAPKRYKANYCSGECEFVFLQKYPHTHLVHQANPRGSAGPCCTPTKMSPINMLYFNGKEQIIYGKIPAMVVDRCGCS

B1: FS315K(76,82,84)E-hFcLALA (Fc fusion)
chain: GNCWLRQAKNGRCQVLYKTELSKEECCSTGRLSTSWTEEDVNDNTLFKWMIFNGGAPNCIPCKETCENVDCGPGKECRMNKENEPRCVCAPDCSNITWKGPVCGLDGKTYRNECALLKARCKEQPELEVQYQGRCKKTCRDVFCPGSSTCVVDQTNNAYCVTCNRICPEPASSEQYLCGNDGVTYSSACHLRKATCLLGRSIGLAYEGKCIKAKSCEDIQCTGGKKCLWDFKVGRGRCSLCDELCPDSKSDEPVCASDNATYASECAMKEAACSSGVLLEVKHSGSCNSISEDTEEEEEDEDQDYSFPISSILEW[here human IgG1 Fc with changes without letters]
notes: printed only as 'K(76,82,84)E'
B2: FS315K82E-hFcLALA (Fc fusion)
chain: GNCWLRQAKNGRCQVLYKTELSKEECCSTGRLSTSWTEEDVNDNTLFKWMIFNGGAPNCIPCKETCENVDCGPGKKCRMNKENKPRCVCAPDCSNITWKGPVCGLDGKTYRNECALLKARCKEQPELEVQYQGRCKKTCRDVFCPGSSTCVVDQTNNAYCVTCNRICPEPASSEQYLCGNDGVTYSSACHLRKATCLLGRSIGLAYEGKCIKAKSCEDIQCTGGKKCLWDFKVGRGRCSLCDELCPDSKSDEPVCASDNATYASECAMKEAACSSGVLLEVKHSGSCNSISEDTEEEEEDEDQDYSFPISSILEW[here human IgG1 Fc with changes without letters]
B3: FS303K(76,81,82)A-hFcLALA (Fc fusion)
chain: GNCWLRQAKNGRCQVLYKTELSKEECCSTGRLSTSWTEEDVNDNTLFKWMIFNGGAPNCIPCKETCENVDCGPGKACRMNAANKPRCVCAPDCSNITWKGPVCGLDGKTYRNECALLKARCKEQPELEVQYQGRCKKTCRDVFCPGSSTCVVDQTNNAYCVTCNRICPEPASSEQYLCGNDGVTYSSACHLRKATCLLGRSIGLAYEGKCIKAKSCEDIQCTGGKKCLWDFKVGRGRCSLCDELCPDSKSDEPVCASDNATYASECAMKEAACSSGVLLEVKHSGSCNSISEDTEEEEEDEDQ[here human IgG1 Fc with changes without letters]
notes: built from its name
B4: FS315K(81,82)A-hFcLALA (Fc fusion)
chain: GNCWLRQAKNGRCQVLYKTELSKEECCSTGRLSTSWTEEDVNDNTLFKWMIFNGGAPNCIPCKETCENVDCGPGKKCRMNAANKPRCVCAPDCSNITWKGPVCGLDGKTYRNECALLKARCKEQPELEVQYQGRCKKTCRDVFCPGSSTCVVDQTNNAYCVTCNRICPEPASSEQYLCGNDGVTYSSACHLRKATCLLGRSIGLAYEGKCIKAKSCEDIQCTGGKKCLWDFKVGRGRCSLCDELCPDSKSDEPVCASDNATYASECAMKEAACSSGVLLEVKHSGSCNSISEDTEEEEEDEDQDYSFPISSILEW[here human IgG1 Fc with changes without letters]
B5: FS315K(76,82)E-hFcLALA (Fc fusion)
chain: GNCWLRQAKNGRCQVLYKTELSKEECCSTGRLSTSWTEEDVNDNTLFKWMIFNGGAPNCIPCKETCENVDCGPGKECRMNKENKPRCVCAPDCSNITWKGPVCGLDGKTYRNECALLKARCKEQPELEVQYQGRCKKTCRDVFCPGSSTCVVDQTNNAYCVTCNRICPEPASSEQYLCGNDGVTYSSACHLRKATCLLGRSIGLAYEGKCIKAKSCEDIQCTGGKKCLWDFKVGRGRCSLCDELCPDSKSDEPVCASDNATYASECAMKEAACSSGVLLEVKHSGSCNSISEDTEEEEEDEDQDYSFPISSILEW[here human IgG1 Fc with changes without letters]
B6: FS315K(81,82)A-GGG-hFcLALA (Fc fusion)
chain: GNCWLRQAKNGRCQVLYKTELSKEECCSTGRLSTSWTEEDVNDNTLFKWMIFNGGAPNCIPCKETCENVDCGPGKKCRMNAANKPRCVCAPDCSNITWKGPVCGLDGKTYRNECALLKARCKEQPELEVQYQGRCKKTCRDVFCPGSSTCVVDQTNNAYCVTCNRICPEPASSEQYLCGNDGVTYSSACHLRKATCLLGRSIGLAYEGKCIKAKSCEDIQCTGGKKCLWDFKVGRGRCSLCDELCPDSKSDEPVCASDNATYASECAMKEAACSSGVLLEVKHSGSCNSISEDTEEEEEDEDQDYSFPISSILEWGGG[here human IgG1 Fc with changes without letters]
notes: built from its name: follistatin variant, GGG linker, hFcLALA
B7: FS315K(76,81,82)A-GGG-hFcLALA (Fc fusion)
chain: GNCWLRQAKNGRCQVLYKTELSKEECCSTGRLSTSWTEEDVNDNTLFKWMIFNGGAPNCIPCKETCENVDCGPGKACRMNAANKPRCVCAPDCSNITWKGPVCGLDGKTYRNECALLKARCKEQPELEVQYQGRCKKTCRDVFCPGSSTCVVDQTNNAYCVTCNRICPEPASSEQYLCGNDGVTYSSACHLRKATCLLGRSIGLAYEGKCIKAKSCEDIQCTGGKKCLWDFKVGRGRCSLCDELCPDSKSDEPVCASDNATYASECAMKEAACSSGVLLEVKHSGSCNSISEDTEEEEEDEDQDYSFPISSILEWGGG[here human IgG1 Fc with changes without letters]
notes: built from its name
B8: FS315K82T-GGG-hFcLALA (Fc fusion)
chain: GNCWLRQAKNGRCQVLYKTELSKEECCSTGRLSTSWTEEDVNDNTLFKWMIFNGGAPNCIPCKETCENVDCGPGKKCRMNKTNKPRCVCAPDCSNITWKGPVCGLDGKTYRNECALLKARCKEQPELEVQYQGRCKKTCRDVFCPGSSTCVVDQTNNAYCVTCNRICPEPASSEQYLCGNDGVTYSSACHLRKATCLLGRSIGLAYEGKCIKAKSCEDIQCTGGKKCLWDFKVGRGRCSLCDELCPDSKSDEPVCASDNATYASECAMKEAACSSGVLLEVKHSGSCNSISEDTEEEEEDEDQDYSFPISSILEWGGG[here human IgG1 Fc with changes without letters]
notes: built from its name
B9: FS303K(76,81,82)A-GGG-hFcLALA (Fc fusion)
chain: GNCWLRQAKNGRCQVLYKTELSKEECCSTGRLSTSWTEEDVNDNTLFKWMIFNGGAPNCIPCKETCENVDCGPGKACRMNAANKPRCVCAPDCSNITWKGPVCGLDGKTYRNECALLKARCKEQPELEVQYQGRCKKTCRDVFCPGSSTCVVDQTNNAYCVTCNRICPEPASSEQYLCGNDGVTYSSACHLRKATCLLGRSIGLAYEGKCIKAKSCEDIQCTGGKKCLWDFKVGRGRCSLCDELCPDSKSDEPVCASDNATYASECAMKEAACSSGVLLEVKHSGSCNSISEDTEEEEEDEDQGGG[here human IgG1 Fc with changes without letters]
notes: built from its name
B10: FS303K82T-GGG-hFcLALA (Fc fusion)
chain: GNCWLRQAKNGRCQVLYKTELSKEECCSTGRLSTSWTEEDVNDNTLFKWMIFNGGAPNCIPCKETCENVDCGPGKKCRMNKTNKPRCVCAPDCSNITWKGPVCGLDGKTYRNECALLKARCKEQPELEVQYQGRCKKTCRDVFCPGSSTCVVDQTNNAYCVTCNRICPEPASSEQYLCGNDGVTYSSACHLRKATCLLGRSIGLAYEGKCIKAKSCEDIQCTGGKKCLWDFKVGRGRCSLCDELCPDSKSDEPVCASDNATYASECAMKEAACSSGVLLEVKHSGSCNSISEDTEEEEEDEDQGGG[here human IgG1 Fc with changes without letters]
notes: built from its name
B11: FS315K(76,81)E-hFcLALA (Fc fusion)
chain: GNCWLRQAKNGRCQVLYKTELSKEECCSTGRLSTSWTEEDVNDNTLFKWMIFNGGAPNCIPCKETCENVDCGPGKECRMNEKNKPRCVCAPDCSNITWKGPVCGLDGKTYRNECALLKARCKEQPELEVQYQGRCKKTCRDVFCPGSSTCVVDQTNNAYCVTCNRICPEPASSEQYLCGNDGVTYSSACHLRKATCLLGRSIGLAYEGKCIKAKSCEDIQCTGGKKCLWDFKVGRGRCSLCDELCPDSKSDEPVCASDNATYASECAMKEAACSSGVLLEVKHSGSCNSISEDTEEEEEDEDQDYSFPISSILEW[here human IgG1 Fc with changes without letters]

One test deals with T1, Activin A. The experiment in a line: cell-based or functional assay.
As to B1, the “Activin A IC50, cell-based assay for SMAD pathway (A204 luciferase reporter)” value worked out at 1 nM.

On to B2, for which the “Activin A IC50, cell-based assay for SMAD pathway (A204 luciferase reporter)” value was 0.6 nM.

The next test addresses T2, BMP-9. The experiment in a line: SPR (BIAcore), anti-human Fc capture, BMP-9 as analyte.
Regarding B3, the binding result is listed as “no binding (tested: 25-0.190 nM)”.

Regarding B4, the binding result is listed as “no binding (tested: 25-0.190 nM)”.

In another test the target is T3, BMP-10. Description: SPR (BIAcore), anti-human Fc capture, BMP-10 as analyte.
Regarding B3, the binding result was “no binding (tested: 25-0.190 nM)”.

In the case of B4, the binding result was “no binding (tested: 25-0.190 nM)”.

Consider B5, for which the binding result is recorded as “no binding (tested: 25-0.190 nM)”.

Another test deals with T4, Myostatin. Description: SPR (BIAcore), anti-human Fc capture, myostatin as analyte.
The molecule B3 returned a Kd of 0.0127 nM.

For B6, the Kd came to 0.0107 nM.

Take B7: the Kd came out at 0.0109 nM.

B8 gave a Kd of 0.013 nM.

B9 gave a Kd of 0.0116 nM. The Kd values of the last two molecules are within 1.5-fold of each other.

Regarding B10, the Kd amounted to 0.0096 nM.

Take B11: the Kd worked out at 0.011 nM. This Kd and that of the molecule before are within 1.5-fold of each other.

The record behind these values is patent US20180362604A1 (SHIRE HUMAN GENETIC THERAPIES, published 2018).
